Assay results from the supplement of paper PMC12632987.
Over roughly 2,300 sequences, “median log2 fold change of GCK-ALFA target abundance (FLAG IP / Myc IP barcode read proportion)” has its median near 0.095; the lowest 2% begin near -0.47. Some of the results follow.

B1: LC3A_free_8_2533 (protein)
chain: KREEFVNKALELLDEFEEEIRKKAKELGLDELDILDLELLIGSLKIEVVELRDKPMEEILKTIEEGLEEIIEEAKELSEELAEKVEELAEEILEELKEMM
B2: LC3A_28_1218 (protein)
chain: SHVEEQLEKARKEAEAALAKGEEALIEVTIPSTFTVEDVKKLMEGLKEIVEEAKDLPRISIIISFEAGVSQEVINAAAEGADEIEKKFPNVTVIIALDEE
B3: LC3A_28_882 (protein)
chain: SKALESAEKALEEVKKAVEAGDKEPLVLEVEAPSDEENTEKFLKLLEELAKEASKLPGVTIIVNIDSSVSQELRDKIIDKAEELEKKYPNVTIIIALPED
B4: LC3A_3_1793 (protein)
chain: AQARIDALLAELRAAGKSDETLAAVRAAATALADRGYEEALATFIEELRELIDAPDEILLDLAEEVLRLIEEEDLDEEELTERIKELAELARNEAEIIEL
B5: LC3A_28_1335 (protein)
chain: SLAEEIIEEAKKKLREVAEKGEPEVIEIEIPGSVTPEEARRIMDAILETAKELKLPKGTAIVINLDADVSQEVIDVVAEGAERIEEEVPGVTVIIALDEN
B6: LC3A_28_1076 (protein)
chain: SSVEEENKKLIEEAKKAREKGEPVVITVTVTDEDTEEDIKLKLETIREIGEILSEVKDAAIIIDLIGEKAKAHLPEFAKVAEEIEEKYPNVTVIIALDEE
B7: LC3A_3_1632 (protein)
chain: MEEEEEEALEALREAGASEETLEAFRETLKALKERGFYEAAKTLIEETRELADLPSEIRLDFLEDVLAIIKTEDLDEEEVIEEIKRLARIARSESEIIEL
B8: LC3A_28_1307 (protein)
chain: SPLRERFEAAIAEVRAAAAAGEPVVVTVDISAEELEEHLEEILELLDRLGEEASKAPGATIIVDVDESTKPENLKKLGERLEEIERRYPNVTVIIAIRDN
B9: LC3A_3_1575 (protein)
chain: MEERLREALERLREAGFSEEVIEAAERALRALLEKGAEEAAEILLETLLKLKDAPDELLIDLLEDVLRLAETDKGSLEELTEKVKELATTYLNESEIIEL
B10: LC3A_132_242 (protein)
chain: MEEKKEKLRKELEELLKKLKENIDNEEKVKELVKEIEELLKKAEKELSPEDALEIFEEVADRLDEIAEEAEKAGKEEVARTIENASMYADGLAIEQELKL
B11: LC3A_45_1959 (protein)
chain: MAVAEVLVLVPKEEFDKVLAIIERQVERINKERGLKASIDEEAVAKARKEAEENGEGLLTVTVESEDLDEALDAADEIADEIERESSPSVAVAIAYEEEP
B12: LC3A_28_1053 (protein)
chain: SAIDKQLEAALAEARAAAAAGEEALITLTIPENATEEDVEKVLATIREIAEITKDLPATTIIVDVDNKNQEEVTKKIDEVGEELAKKYPNVTVIIALSEN
B13: LC3A_free_39_2253 (protein)
chain: SDAEMEAIAAEAKAQLPAEAHPAVDRLLAAAKELGLSPETVKAFMDALLQAHSWGVDIAEIVETGIRALRELKAEGLSEEEITRLVVLEMELTAGSQYLE
B14: LC3A_28_685 (protein)
chain: SKTEEDLKKALEEAEEALKKGEPTVVRINVYGDVTEEELEKVLKALEEIAKILNKIPGSAIIVDIDADVDEEFEDKIIDKAEELEKKYPNVTIIIALEER
B15: LC3A_28_777 (protein)
chain: MDIEEEIEKAIEEAKKAKERGEEAVITIEVPDGATEEDIEKVIEGMEEIAEINKDMESTAIIIDIDSGVKQEHIDKLIDKGEEIEEKYPNVTVIFALDED
B16: LC3A_28_907 (protein)
chain: GSSLEEAKKALEEVEKKVKEGDEEPLVLEITAPSTEEDVEKFIELLEKLAKEADKLKGVSIIIDIDESVSEENKNKIIDKAEELEKKYPNVTVIIALPES
B17: LC3A_3_1532 (protein)
chain: LDEEVKETLELLKKAGASEEALEAFKEAAEELKKRGYENALKTLIEEAKELLNVPNDLFLDFFKEVLELIKNSDLSEEELVEKIKEIAKTTKNEAEIEEL
B18: LC3A_102_153 (protein)
chain: SAEEEIEKKKKEALEEIKKLIEKEKSLTEEEKAEALKLAKEALEAAIENAKTEAQHGFVDLVAEDKLEEALEKLEKISPEIAKKTKEKIEELKKLIKELA
B19: LC3A_28_770 (protein)
chain: MDIEEEVARAIEEAKEAVARGEETVITLTVPKGATEEDIEKAIEGLEEIAEIVKDMPSQSIIIDVESGVAQENLDKLMDKAEEIEKKYPNVTVIIALDED
B20: LC3A_3_1766 (protein)
chain: MEEKVEEVRERLKELGADEETIETAAEAVRLLLERGLEETAEEFVETLEELLKKSKELAADLARDVLEILLTSDLSPEEIAEEVREEIRNYRLEAEIEEL
B21: LC3A_132_240 (protein)
chain: SEELYEKLRKEAEELLKKIRENLDDLEKVKELVAKLEELLDRALEELTPEEVEELAREVAERLEEIREEAEKAGKEEVASLLENAAMYADGIAIEAELKL
B22: LC3A_147_505 (protein)
chain: VKLEVDIDIITKDAVEEVKKFVEEVKKELEEKGFEVKVKIKVEKLDEKTYYIEIEIEVKAETKEEAEEAANYIIDRFEEFEEKNKDKILGSLISVEIIEE
B23: LC3A_28_955 (protein)
chain: SALEKQLEEVLKQAKEAAKAGKAEVFVIRVPGTADQEDIDRVIEAMYEIAELLKDIKGSAIIVEVDAGVAQEHIDRLVDAAEEIEEKYPNVTVIIALDED
B24: LC3A_free_26_2138 (protein)
chain: SDYIDIYLLDKALELLEEIAKELKKAGPEYEELAKKAEEAKKLIEKETLESLKEALKILEEMKKELKKLLDKDPEFMKKLLKKVEEAEKLVKEIIEIMES
B25: LC3A_free_2_2169 (protein)
chain: ARYRVVADVLGPAAGVAALMEVLAKHGLRVTVELEDGTVREGTAAEHAAYFRELAARGEEVLVRITFETDKETAEAVAEELEKVAEETGVALLIDIEKIA
B26: LC3A_free_39_2282 (protein)
chain: SPEEAKEAKERFLKLADSSSPETKELLLELLEIFKDDTEAIKKIVDALEEAKKEGADMLRIAKTALEIAKKLKAEGKSLEEIAEAVVQAIRDEINLQPID
B27: LC3A_28_1231 (protein)
chain: MTPEEIAKRLIEEAKAQLAAGEKVIEIDITAEEGSPENAEALVKALKEIAALANEAKGVSIIVTLDEKIPQESRDKIIKAAEEAEKEYPNVTIIIAIDEE
B28: LC3A_6_2060 (protein)
chain: KTVTVTVDLLLKEEKLEEGKAAVEKAVEEAKKELEKKAKELGKKLLEVKLEESEDGLLLTVTFKAEYHPELKAKMEELADKIVEEMKPYSLASMISIEIE
B29: LC3A_17_573 (protein)
chain: MEEVEELYKKALEVLKKAAEFAAKVDPEKAKEIEKLIKELEKAKKELSPLEIAKKIAEVMDKAADILDSLDAPDPDERDHLSMEAEGVSIEALSLALKLE

Target: MAP1LC3A, Q9H492
Experiment: median log2 fold change of GCK-ALFA target abundance (FLAG IP / Myc IP barcode read proportion) (log2 ratio); each designed protein is fused to an ALFA-tag nanobody in HEK293 cells to bring the named protein to FLAG-tagged glucokinase (GCK); Myc marks an untargeted standard; higher = target protein stabilised (more abundant)
Conditions: target protein: 3xFLAG-MCP-GCK-ALFA reporter; HEK293 landing pad (RPLP)
Experimental: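 LABEL-seq trans screen in HEK293 landing-pad cells. Each de novo designed 100-aa effector handle, binding the indicated effector (E3 ligase, DUB or autophagy protein), is fused to a constant NbALFA target handle and induced with 2 ug/mL doxycycline. A FLAG-MCP-GCK-ALFA target and a Myc-MCP standard reporter were transfected, and after 48 h circRNA barcodes were recovered by anti-FLAG and anti-Myc IP and sequenced. The value is the median across barcodes (at least 3 per design) of log2(FLAG/Myc read-proportion ratio), with the two transfection replicates pooled. Negative values mean degradation and positive values mean stabilisation of the target.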

In order of rising “median log2 fold change” value:
1. B12  -0.454
2. B22  -0.448
3. B16  -0.387
4. B14  -0.264
5. B19  -0.192
6. B5  -0.177
7. B18  -0.137
8. B1  -0.133
9. B28  -0.119
10. B23  -0.106
11. B3  -0.094
12. B15  -0.0931
13. B10  -0.0828
14. B21  -0.0623
15. B29  -0.04
16. B11  0.00723
17. B25  0.0356
18. B6  0.0639
19. B7  0.0896
20. B24  0.0955
21. B20  0.0965
22. B13  0.124
23. B2  0.128
24. B4  0.139
25. B9  0.156
26. B8  0.158
27. B17  0.249
28. B27  0.249
29. B26  0.308
